Out of some 310,000 compounds screened, about 2,200 (0.71%) showed an effect of 50% or more. Effects have a minus sign here. This is one part of the list.
Molecular target: human ether-à-go-go-related gene (hERG) potassium channel (human, UniProt Q12809)
Assay: primary screen, population patch clamp on CHO cells stably expressing hERG

Chain of human ether-à-go-go-related gene (hERG) potassium channel (Q12809 whole entry, looked up): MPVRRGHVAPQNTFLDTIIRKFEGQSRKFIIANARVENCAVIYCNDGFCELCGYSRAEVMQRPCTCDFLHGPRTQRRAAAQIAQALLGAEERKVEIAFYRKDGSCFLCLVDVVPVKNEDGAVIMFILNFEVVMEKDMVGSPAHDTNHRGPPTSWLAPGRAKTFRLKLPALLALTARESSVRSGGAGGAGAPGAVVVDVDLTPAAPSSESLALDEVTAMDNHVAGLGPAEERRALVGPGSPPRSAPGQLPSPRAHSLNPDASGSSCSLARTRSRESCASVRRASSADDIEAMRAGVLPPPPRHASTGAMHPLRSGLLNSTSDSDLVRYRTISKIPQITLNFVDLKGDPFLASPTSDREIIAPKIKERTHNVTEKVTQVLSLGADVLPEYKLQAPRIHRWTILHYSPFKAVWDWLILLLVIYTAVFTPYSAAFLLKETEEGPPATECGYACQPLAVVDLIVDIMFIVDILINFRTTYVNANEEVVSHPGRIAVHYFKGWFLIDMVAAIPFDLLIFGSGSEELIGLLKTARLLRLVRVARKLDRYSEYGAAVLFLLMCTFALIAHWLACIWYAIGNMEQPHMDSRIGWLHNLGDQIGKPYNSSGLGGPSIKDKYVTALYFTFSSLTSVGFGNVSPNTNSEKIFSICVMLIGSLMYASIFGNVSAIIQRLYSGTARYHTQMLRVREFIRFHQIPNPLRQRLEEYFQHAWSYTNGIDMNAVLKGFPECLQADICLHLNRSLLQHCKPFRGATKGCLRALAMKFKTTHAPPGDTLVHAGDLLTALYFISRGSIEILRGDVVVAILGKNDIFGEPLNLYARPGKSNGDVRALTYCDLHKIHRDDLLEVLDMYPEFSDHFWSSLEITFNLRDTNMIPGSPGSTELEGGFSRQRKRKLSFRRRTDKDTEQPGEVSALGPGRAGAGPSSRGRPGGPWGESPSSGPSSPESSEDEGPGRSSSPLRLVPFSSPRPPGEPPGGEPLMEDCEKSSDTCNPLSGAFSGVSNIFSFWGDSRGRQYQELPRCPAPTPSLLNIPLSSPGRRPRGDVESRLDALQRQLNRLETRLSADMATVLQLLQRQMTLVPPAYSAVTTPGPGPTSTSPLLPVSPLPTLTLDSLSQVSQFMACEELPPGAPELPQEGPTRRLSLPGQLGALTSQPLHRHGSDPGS

Row | SMILES | hERG current change (%, negative = inhibition) at 1uM [%]
1 | O=C1Cc2cc(NS(=O)(=O)c3ccc(Cl)cc3)cc3c2N1CCC3 | 1.28
2 | CCC(=O)Nc1nc2ccccc2n1Cc1ccccc1 | 2.8
3 | COc1ccc(OC)c(NC(=O)c2ccc(-n3cccn3)nc2)c1 | -16.2
4 | CNC(=O)N(O)C1N(NC(=O)Nc2cccc3ccccc23)C(=S)SC1(C)C (stereo not drawn) | 1.3
5 | COc1ccc(N=Cc2sc(O)c3ccccc23)cc1 | 14.7
6 | Cc1ccc(S(=O)(=O)Nc2cccc(Cl)c2)cc1NC(=O)c1cccnc1 | 5.21
7 | C1COCCNCCOCCOCCOCCN1 | 6.07
8 | COc1ccc(C(CNC(=O)c2cc(S(=O)(=O)N3CCCC3)ccc2Cl)N2CCCC2)cc1 (stereo not drawn) | -7.15
9 | Cc1cccc(N2C(=O)NC(=O)/C(=C/c3ccc(N4CCOCC4)cc3)C2=O)c1 | 13.6
10 | CC(C)Cn1cnc2c1c(=O)n(CC(O)c1ccccc1)c(=O)n2CC(C)C (stereo not drawn) | -0.774
11 | Cc1cccc(C(=O)N(CCc2ccccc2)Cc2ccccc2)c1[N+](=O)[O-] | 6.71
12 | S=C1NCCOCCOCCOCCNC(=S)NCCOCCOCCOCCN1 | 15.5
13 | COc1ccccc1C(=O)NCCC(=O)N1CCN(C(C)=O)CC1 | 15.9
14 | O=C(C(Cc1ccccc1)n1cccc1)N1CCN(C2CCCCC2)CC1 (stereo not drawn) | -24.8
15 | O=C(Nc1ccc(Cl)c(C(F)(F)F)c1)c1ccco1 | 1.42
16 | CNC1=C(N(C(C)=O)c2ccc(Br)cc2)C(=O)c2ccccc2C1=O | 4.67
17 | COc1ccc(OC)c(NC(=O)C2CC(=O)N(c3ccc(Br)cc3)C2)c1 (stereo not drawn) | -1.11
18 | O=C(O)CSCC(=O)NCc1csc2ccc(Cl)cc12 | 6.72
19 | COc1ccccc1C(=O)NCCC(=O)N(C)Cc1cccnc1 | 6.2
20 | C=CCc1cccc(CNc2c(C)cc(C)cc2C)c1O | 12.3
21 | CCCCC(=O)Nc1ccc2c(c1)nc(CN1CCN(C(=O)OCC)CC1)n2C | 13.1
22 | COc1ccccc1N1CCN(C(=O)c2ccccc2NC(=O)C2CCCCC2C(=O)O)CC1 (stereo not drawn) | 1.57

Row | SMILES | hERG current change (%, negative = inhibition) at 1uM [%]
23 | Cc1cc(=O)oc(C)c1C(=O)OCC(=O)c1ccc2ccccc2c1 | 14.7
24 | O=c1[nH]c(CSc2ncc(C(F)(F)F)cc2Cl)nc2cc(C(F)(F)F)ccc12 | 3.42
25 | CCOc1ccc(/C(C)=N\NC(=O)Cc2ccccc2)cc1 | 0.939
26 | COC(=O)C1=C(C)NC(C)=C(C(=O)OC)C1/C=C/c1ccccc1 | -8.65
27 | CC(C)Cc1nc2oc3c(NCc4cccnc4)ncnc3c2c2c1CCC2 | -12.8
28 | CCn1ccc(C(=O)NC2=NCCS2)n1 | 0.803
29 | CCCCc1cc(=O)oc2c(CN3CCCC3)c(O)ccc12 | -10.5
30 | O=C(NCc1ccccc1Cl)C1CCC(=O)N(C2CC2)C1 (stereo not drawn) | 17.1
31 | CN(C(=O)c1cccs1)C1(C)CCS(=O)(=O)C1 (stereo not drawn) | 13.3
32 | CCCCNC(=O)COC(=O)c1cc(C)nc2ccccc12 | 2.17
33 | CCCCCNC(=O)c1ccc2c(=O)n(CC3CCCO3)c(=O)[nH]c2c1 (stereo not drawn) | 16
34 | COc1ccc(C2CC(c3ccc4ccccc4c3)=NN2C(=O)CSc2ncccn2)cc1 (stereo not drawn) | 12.6
35 | CCOC(=O)N1CCC(N2C(=O)c3ccccc3C2Nc2ccc(Cl)cn2)CC1 (stereo not drawn) | -1.08
36 | CCc1ccc(OCC(O)Cn2c(N3CCCCC3)nc3c2c(=O)[nH]c(=O)n3C)cc1 (stereo not drawn) | 2.64
37 | O=C(C1CCCO1)N1CCN(C(=S)Nc2ccccc2Cl)CC1 (stereo not drawn) | 2.65
38 | NC(=O)C1CCN(S(=O)(=O)c2ccccc2[N+](=O)[O-])CC1 | 12.4
39 | CCCc1cc(=O)[nH]c2nnc(SCC(=O)Nc3ccc(NC(C)=O)cc3)n12 | 10
40 | COc1ccc(C)cc1N(C(=O)CNC(=O)c1ccco1)C(C(=O)NCC1CCCO1)c1ccccc1 (stereo not drawn) | 14.8
41 | O=C(NCc1cccnc1)c1sc2cc(Cl)ccc2c1Cl | -12.7
42 | Cc1noc(C)c1COC(=O)c1ccc2c(c1)S(=O)(=O)c1ccccc1C2=O | 9.57
43 | CCC1=Nc2cc(C(=O)NCCCN3CCOCC3)ccc2Sc2ccc(Br)cc21 | 15.9
44 | Cc1ccc(S(=O)(=O)N(C)c2ccc(NS(C)(=O)=O)cc2)cc1 | -21

Row | SMILES | hERG current change (%, negative = inhibition) at 1uM [%]
45 | CC1(C)Cc2nc3oc4c(=O)n(CC(=O)Nc5cccc(Cl)c5)cnc4c3cc2CO1 | 14.9
46 | COc1cccc(C2CC(c3c(Cl)cccc3Cl)n3nc(N)nc3N2)c1 (stereo not drawn) | 13.1
47 | Cn1[nH]c(C(F)(F)F)c(C=NCc2ccc(Cl)cc2)c1=O | 7.93
48 | Cc1ccccc1/C=c1\s/c(=C\C(=O)C(C)(C)C)[nH]c1=O | 9.43
49 | C/C(=N/N=C1/NC(=O)CC(C(=O)O)S1)c1ccccc1 (stereo not drawn) | 10.8
50 | CN(CCO)C1=NS(=O)(=O)c2cc([N+](=O)[O-])ccc21 | 13
51 | CC(C)CC(=O)Nc1cccc2c1C(=O)N(c1ccccc1)C2=O | 6.54
52 | Oc1c(C(c2cccs2)N2CCN(c3cccc(Cl)c3)CC2)sc2ncnn12 (stereo not drawn) | 15.2
53 | O=C(CSc1ncccn1)N1CCCc2ccccc21 | 10.8
54 | COc1ccc(C(=O)NNC2=NS(=O)(=O)c3ccccc32)cc1OC | 15.5
55 | Cc1nnc(SCC(=O)Nc2ccccc2C(=O)NC2CC2)s1 | 7.26
56 | O=c1cc(CSc2n[nH]c(-c3ccncc3)n2)nc2sccn12 | 11.8
57 | CCN(CC)S(=O)(=O)N1CCC(C(=O)N2CCC3(CC2)OCCO3)CC1 | 4.47
58 | Cc1nnc(C)c2c(C)n(-c3cccc4cccnc34)c(C)c12 | 4.64
59 | O=C(N=C1SC2CS(=O)(=O)CC2N1c1ccc(Cl)c(Cl)c1)C1CCCO1 (stereo not drawn) | 19.6
60 | COc1ccc(C(=O)Sc2ccc(Cl)cc2)cc1OC | 4.71
61 | O=C(O)c1cccc2c(-c3ccccc3)c(-c3ccccc3)[nH]c12 | 13.1
62 | COc1cccc(/C=N\NC(=O)C2C(=O)NCC2c2ccccc2)c1O (stereo not drawn) | -3.19
63 | O=C(C1CCN(S(=O)(=O)c2ccccc2)CC1)N1CCN(c2ccccc2F)CC1 | 0.218
64 | O=C(Nc1ccccc1C(=O)O)c1cccc(NC(=O)c2ccccc2Cl)c1 | 19.2
65 | Cc1c(C(=O)OCC(=O)N(C)Cc2ccc(Cl)cc2)oc2ccccc12 | 1.32
66 | CCOCCn1c(=O)c2c(nc3n2CC(C)CN3CCc2ccccc2)n(C)c1=O (stereo not drawn) | -58.9

Row | SMILES | hERG current change (%, negative = inhibition) at 1uM [%]
67 | O=C(OCc1nnc(-c2ccccc2)o1)c1ccc2c(c1)C(=O)N(CCc1ccccc1)C2=O | 12.3
68 | CC1(C)CC(=O)/C(=C(\O)CCCN2C(=O)c3ccccc3C2=O)C(=NCCO)C1 | 8.29
69 | C=CCC(c1ccccc1F)N(CCN1CCOCC1)C(=O)Nc1cccc(Cl)c1 (stereo not drawn) | 10.8
70 | Cc1ccc(Cl)c(NC(=O)CN(C)CC(=O)Nc2ccc(F)c(F)c2F)c1Cl | 1.28
71 | CCCCn1c(O)c(C(C)=NC(Cc2c[nH]c3ccccc23)C(=O)OC)c(=O)[nH]c1=O (stereo not drawn) | -8.88
72 | COC(=O)c1c(NC(=O)CN2C(=O)NC(CCc3ccccc3)C2=O)sc2c1CCCCC2 (stereo not drawn) | 7.47
73 | COc1ccccc1NC(=O)Cn1nnc(-c2ccccc2NC(=O)c2cc3ccccc3oc2=O)n1 | 11.2
74 | COCCN1C=C(C(=O)OC)C(c2ccccc2Cl)C(C(=O)OC)=C1 | 17.3
75 | ON1C(c2ccccc2)CC2(O)c3nonc3CCC12 (stereo not drawn) | -0.372
76 | N/C(=N\OC(=O)CCC1CCCC1)c1ccc(Br)cc1 | -6.36
77 | O=C(Nc1cccc([N+](=O)[O-])c1)N1CCN(c2ccccc2)CC1 | -12.7
78 | Cn1c(=O)cc(SCC(=O)N2CCC3(CC2)OCCO3)c2ccc(Cl)cc21 | -14.4
79 | COc1ccc(NC(=O)CSc2ncnc3[nH]ncc23)cc1 | 10.3
80 | CCN(Cc1ccccc1)C(=O)CCc1nc(CN2CCN(C(=O)c3ccc([N+](=O)[O-])cc3)CC2)no1 | -10.6
81 | Clc1ccc2c(c1)C(c1ccccc1Cl)=NCc1nnc(N3CCN(CCSc4ccccc4)CC3)n1-2.O.O=C(O)/C=C/C(=O)O | -10.8
82 | O=c1cc2c(nn1Cc1ccc(Cl)cc1)-c1ccccc1CC2 | 9.57
83 | COc1cccc(CNCc2ccccn2)c1OC | 7.94
84 | CCOC(=O)CSCCOc1ccc(C=C2C(=O)NC(=O)NC2=O)cc1OC | 16.7
85 | Cn1c(=O)n(C)c2cc(S(=O)(=O)NCc3ccccc3)ccc21 | 8.26
86 | O=C(/C=C/c1ccccc1)N1CCC(Cc2ccccc2)CC1 | 0.436
87 | COc1ccc(S(=O)(=O)N2CCCC(C(=O)N3CCOCC3)C2)cc1C (stereo not drawn) | 8.72

— publication PMC4336329 (PLoS ONE, 2015)
